{"source": "the supplement of paper PMC11060735", "note": "Several values for one entry are separate records, joined by “and”; a condition that tells them apart may be missing. Equal values may be shown once. The campaign covered roughly 1,800 compounds. About 50 (3%) showed activity. Some of the results follow.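 Further: fibroblasts sorted 14 days after bleomycin, GFP+ and GFP− mixed 1:1 in 384-well plates (GFP− as in-well control), imaged after Hoechst and NucView530 staining, reference wells lacked compound.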"}
{"tested_on": "mouse p16Ink4a+/- lung fibroblasts (INKBRITE, bleomycin-injured)", "test": "percentage of GFP+ (p16Ink4a+) fibroblasts among all cells in well; higher = less depletion of p16Ink4a+ cells, active = 20 or less", "conditions": "1 µM; 3 days"}
{"compound": "Cc1nnc(C(=O)NC(C)(C)c2nc(C(=O)NCc3ccc(F)cc3)c(O)c(=O)n2C)o1", "note": "[Raltegravir]", "percentage of GFP+": "inactive: 39.5%"}
{"compound": "Cc1nc2c([nH]1)-c1ccccc1N(C(=O)c1ccc(NC(=O)c3ccccc3-c3ccccc3)cc1)CC2", "note": "[Conivaptan]", "percentage of GFP+": "inactive: 31.8%"}
{"compound": "Cc1ncc(CO)c(CO)c1O", "note": "[Pyridoxine]", "percentage of GFP+": "inactive: 41.4%"}
{"compound": "C[C@H](O)[C@H](O)[C@@H](O)[C@@H](O)C=O", "note": "[L-(+)-Rhamnose Monohydrate]", "percentage of GFP+": "inactive: 47%"}
{"compound": "CC(C)(C#N)c1cc(Cn2cncn2)cc(C(C)(C)C#N)c1", "note": "[Anastrozole]", "percentage of GFP+": "inactive: 45.5%"}
{"compound": "C[C@@]1(C(=O)Nc2ccc(F)nc2)CCCN1c1nc(Nc2cc(C3CC3)[nH]n2)c2cccn2n1", "percentage of GFP+": "inactive: 36.7%"}
{"compound": "O=C(NOCC(O)CO)c1cc(Br)c(F)c(F)c1Nc1ccc(I)cc1F", "note": "(stereo unspecified)", "percentage of GFP+": "inactive: 36.5%"}
{"compound": "CC[C@H](NC(=O)[C@H](C)NC)C(=O)N1C[C@@H](O)C[C@H]1Cc1c(-c2[nH]c3cc(F)ccc3c2C[C@@H]2C[C@H](O)CN2C(=O)[C@H](CC)NC(=O)[C@H](C)NC)[nH]c2cc(F)ccc12", "note": "[Birinapant]", "percentage of GFP+": "inactive: 38.6%"}
{"compound": "CCN1CCC[C@H]1CNC(=O)c1cc(S(N)(=O)=O)ccc1OC", "note": "[Levosulpiride]", "percentage of GFP+": "inactive: 43.5%"}
{"compound": "NC(=O)N1c2ccccc2C=Cc2ccccc21", "note": "[Carbamazepine]", "percentage of GFP+": "inactive: 46.9%"}
{"compound": "CC(=O)[C@H]1CC[C@H]2[C@@H]3CCC4=CC(=O)CC[C@]4(C)[C@H]3CC[C@]12C", "note": "[Progesterone]", "percentage of GFP+": "inactive: 51%"}
{"compound": "Nc1cccc(-c2cc3c(Oc4cccc(O)c4)ncnc3[nH]2)c1", "percentage of GFP+": "inactive: 32%"}
{"compound": "CN1C(=O)C(Cc2c[nH]c3ccccc23)NC1=S", "note": "(stereo unspecified) [Necrostatin-1]", "percentage of GFP+": "inactive: 47.6%"}
{"compound": "Oc1nc2ccccc2n1CCCN1CCC(n2c(O)nc3cc(Cl)ccc32)CC1", "note": "[Domperidone]", "percentage of GFP+": "inactive: 46.3%"}
{"compound": "O=C(/C=C/c1ccccc1)NC(NC(=S)Nc1ccc(Cl)cc1)C(Cl)(Cl)Cl", "note": "(stereo unspecified)", "percentage of GFP+": "inactive: 58.3%"}
{"compound": "N[C@@H](Cc1cc(I)c(Oc2cc(I)c(O)c(I)c2)c(I)c1)C(=O)O", "note": "[Thyroxine, Levothyroxine]", "percentage of GFP+": "inactive: 38.8%"}
{"compound": "Oc1ccc(OC2CCCCO2)cc1", "note": "(stereo unspecified) [Deoxyarbutin]", "percentage of GFP+": "inactive: 49.7%"}
{"compound": "CCCCCOC(=O)Nc1nc(=O)n([C@@H]2O[C@H](C)[C@@H](O)[C@H]2O)cc1F", "note": "[Capecitabine]", "percentage of GFP+": "inactive: 40.5%"}
{"compound": "COc1cccc(-c2cc(=O)c3ccccc3o2)c1N", "percentage of GFP+": "inactive: 54%"}
{"compound": "CC(=O)O[C@@]12CO[C@@H]1C[C@H](O)[C@@]1(C)C(=O)[C@H](O)C3=C(C)[C@@H](OC(=O)[C@H](O)[C@@H](NC(=O)OC(C)(C)C)c4ccccc4)C[C@@](O)([C@@H](OC(=O)c4ccccc4)[C@H]21)C3(C)C", "note": "[Docetaxel]", "percentage of GFP+": "inactive: 35.5%"}
{"compound": "CCn1c(=O)c2c(nc(/C=C/c3ccc(OC)c(OC)c3)n2C)n(CC)c1=O", "note": "[Istradefylline]", "percentage of GFP+": "inactive: 55%"}
{"compound": "CO[C@H]1C[C@@H]2CC[C@@H](C)[C@@](O)(O2)C(=O)C(=O)N2CCCC[C@H]2C(=O)O[C@H]([C@H](C)C[C@@H]2CC[C@@H](OCCO)[C@H](OC)C2)CC(=O)[C@H](C)/C=C(\\C)[C@@H](O)[C@@H](OC)C(=O)[C@H](C)C[C@H](C)/C=C/C=C/C=C/1C", "note": "[Everolimus]", "percentage of GFP+": "inactive: 29.7%"}
{"compound": "CCc1ccc(/C=C2/SC(=S)NC2=O)cc1", "percentage of GFP+": "inactive: 50.8%"}
{"compound": "O=C(O)CC1CC(c2ccccc2)=NO1", "note": "(stereo unspecified)", "percentage of GFP+": "inactive: 53.4%"}
{"compound": "Nc1nc(N)c2nc(-c3cccc(O)c3)c(-c3cccc(O)c3)nc2n1", "percentage of GFP+": "inactive: 33.6%"}
{"compound": "CC(C)c1ccccc1Cc1cc(C(=O)Nc2ccc(S(=O)(=O)c3ccccc3C(C)(C)C)cc2)c(O)c(O)c1O", "percentage of GFP+": "active: 16.4%"}
{"compound": "Cc1cnc(NC(=O)C2=C(O)c3ccccc3S(=O)(=O)N2C)s1", "note": "[Meloxicam]", "percentage of GFP+": "inactive: 39.9%"}
{"compound": "O=C1C(=O)N(Cc2ccc(Cl)c(Cl)c2)c2ccccc21", "note": "[Apoptosis Activator 2]", "percentage of GFP+": "inactive: 49.6%"}
{"compound": "CCC(CC)(NC(=O)C(C)C)C(=O)N[C@@H](CCCN=C(N)N)C(=O)NC1(C(=O)NC(c2ccc(F)cc2)c2ccc(F)cc2)CCCC1", "percentage of GFP+": "inactive: 42%"}
{"compound": "NC(=O)c1ccc(N(C(N)=O)c2c(F)cccc2F)nc1-c1ccc(F)cc1F", "percentage of GFP+": "inactive: 53.1%"}
{"compound": "COC[C@H](NC(=O)c1cnc(C)s1)C(=O)N[C@@H](COC)C(=O)N[C@@H](Cc1ccccc1)C(=O)C1(C)CO1", "note": "(stereo partly specified) [Oprozomib]", "percentage of GFP+": "active: 5.21%"}
{"compound": "COc1ccc(-c2cc(=O)c3c(OC)c(OC)c(OC)c(OC)c3o2)cc1OC", "note": "[Nobiletin]", "percentage of GFP+": "inactive: 46%"}
{"compound": "Cc1ccc(Nc2c(F)cccc2Cl)c(CC(=O)O)c1", "note": "[Lumiracoxib]", "percentage of GFP+": "inactive: 42.8%"}
{"compound": "CCCCC(=O)O[C@H]1CC[C@H]2[C@@H]3CCc4cc(O)ccc4[C@H]3CC[C@]12C", "note": "[Estradiol valerate]", "percentage of GFP+": "inactive: 47.9%"}
{"compound": "COc1cc(N2CCN(C)CC2)ccc1Nc1nccc(-c2cn(C)c3cnccc23)n1", "percentage of GFP+": "inactive: 46.2%"}
{"compound": "CO[C@H]1/C=C/O[C@@]2(C)Oc3c(C)c(O)c4c(O)c(c(/C=N/N5CCN(C)CC5)c(O)c4c3C2=O)NC(=O)/C(C)=C\\C=C\\[C@H](C)[C@H](O)[C@@H](C)[C@@H](O)[C@@H](C)[C@H](OC(C)=O)[C@@H]1C", "note": "[Rifampicin]", "percentage of GFP+": "inactive: 45.9%"}
{"compound": "COc1ccc(-c2nc3cc(C4=NNC(=O)CC4C)ccc3[nH]2)cc1", "note": "(stereo unspecified) [Pimobendan]", "percentage of GFP+": "inactive: 40.4%"}
{"compound": "NC(=O)c1ccc(-c2nc(-c3ccc4c(c3)OCO4)c(-c3ccccn3)[nH]2)cc1", "percentage of GFP+": "inactive: 44.6%"}
{"compound": "CC1(C)S[C@@H]2[C@H](NC(=O)[C@H](N)c3ccc(O)cc3)C(=O)N2[C@H]1C(=O)O", "note": "[Amoxicillin]", "percentage of GFP+": "inactive: 43.1% and inactive: 47.4%"}
{"compound": "O=C(COc1ccc(C(=O)c2ccccc2)cc1)NC1CCN(Cc2ccccc2)CC1", "note": "[AdipoRon]", "percentage of GFP+": "inactive: 49.5%"}
{"compound": "CNC(=O)c1cc(COc2nnc(Nc3ccc(Cl)cc3)c3ccoc23)ccn1", "note": "[Telatinib]", "percentage of GFP+": "inactive: 45.2%"}
